Experimental data published in publication PMC4336329 (PLoS ONE, 2015).
In all, about 310,000 compounds went through this assay and about 14,000 (4.5%) showed an effect of 50% or more. Effects have a minus sign here. This is one part of the list.

Target: human ether-à-go-go-related gene (hERG) potassium channel (human, UniProt Q12809)
Assay: primary screen, population patch clamp on CHO cells stably expressing hERG
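Note: peak tail current of the secondary pulse compared with the same well before compound.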

Sequence of human ether-à-go-go-related gene (hERG) potassium channel (Q12809 whole entry, looked up): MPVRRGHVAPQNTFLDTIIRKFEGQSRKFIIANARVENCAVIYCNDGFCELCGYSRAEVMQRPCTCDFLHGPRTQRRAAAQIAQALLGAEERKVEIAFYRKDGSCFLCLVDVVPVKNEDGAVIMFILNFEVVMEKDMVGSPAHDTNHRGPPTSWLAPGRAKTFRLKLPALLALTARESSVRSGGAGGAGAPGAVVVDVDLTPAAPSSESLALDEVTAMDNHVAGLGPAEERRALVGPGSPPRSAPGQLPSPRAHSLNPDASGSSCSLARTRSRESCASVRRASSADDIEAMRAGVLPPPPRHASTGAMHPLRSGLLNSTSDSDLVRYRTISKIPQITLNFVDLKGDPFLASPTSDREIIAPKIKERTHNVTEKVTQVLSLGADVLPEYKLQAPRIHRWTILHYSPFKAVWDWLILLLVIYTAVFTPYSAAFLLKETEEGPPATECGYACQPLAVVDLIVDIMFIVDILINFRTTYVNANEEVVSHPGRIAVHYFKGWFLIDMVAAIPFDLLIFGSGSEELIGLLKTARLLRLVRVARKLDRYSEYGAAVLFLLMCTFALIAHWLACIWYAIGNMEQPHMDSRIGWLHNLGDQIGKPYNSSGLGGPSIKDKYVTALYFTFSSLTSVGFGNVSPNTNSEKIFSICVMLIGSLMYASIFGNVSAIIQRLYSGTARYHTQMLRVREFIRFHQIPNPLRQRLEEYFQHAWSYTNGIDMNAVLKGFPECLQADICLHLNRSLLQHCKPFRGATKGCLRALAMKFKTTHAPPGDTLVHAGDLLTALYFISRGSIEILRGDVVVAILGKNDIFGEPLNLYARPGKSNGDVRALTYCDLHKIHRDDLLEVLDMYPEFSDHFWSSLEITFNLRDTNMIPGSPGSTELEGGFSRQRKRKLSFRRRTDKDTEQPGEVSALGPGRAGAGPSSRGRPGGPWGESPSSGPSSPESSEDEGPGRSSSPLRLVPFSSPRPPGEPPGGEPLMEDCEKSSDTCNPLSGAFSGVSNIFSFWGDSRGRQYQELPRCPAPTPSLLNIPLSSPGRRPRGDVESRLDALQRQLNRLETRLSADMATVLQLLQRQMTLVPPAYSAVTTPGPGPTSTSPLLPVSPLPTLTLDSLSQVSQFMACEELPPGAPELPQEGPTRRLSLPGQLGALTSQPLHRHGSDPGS

**Q.** How did the “hERG current change (%, negative = inhibition) at 10uM” value turn out when `NC(=O)C1CCN(C(=O)c2ccc(-c3ccccc3Cl)o2)CC1` was run?
**A.** The value was -12.8%.

**Q.** Which “hERG current change (%, negative = inhibition) at 10uM” value does the source give for `CCOP(=O)(Cc1cc(C#N)oc1C)OCC` here?
**A.** Its value is -2.98%.

**Q.** For `COc1ccccc1/C=N\Nc1cn[nH]c(=O)c1Cl`, which “hERG current change (%, negative = inhibition) at 10uM” value is on record?
**A.** The value was 10.4%.

**Q.** Which “hERG current change (%, negative = inhibition) at 10uM” value does the source give for `COC(=O)CNC(=O)/C=C/c1ccc(OC)cc1` here?
**A.** The value was 15.2%.

**Q.** For `COc1ccc(C(CC(=O)N2CCCCC2)NC(=O)C(F)(F)F)cc1` (stereo not shown), which “hERG current change (%, negative = inhibition) at 10uM” value is on record?
**A.** The value was -0.0719%.

**Q.** With `COc1ccccc1CNC(=O)COC(=O)c1cc(-c2ccco2)nc2ccccc12` as the compound, how does the “hERG current change (%, negative = inhibition) at 10uM” value read?
**A.** The value was 7.57%.

**Q.** Which “hERG current change (%, negative = inhibition) at 10uM” value does the source give for `COc1ccc(/C=C/C(=O)N2CCN(S(=O)(=O)/C=C/c3ccccc3)CC2)cc1OC` here?
**A.** Its value is 7.66%.

**Q.** `Cc1cnc(C)c(N2CCN(Cc3nc(-c4ccc(C)o4)oc3C)CC2)n1` was tested. Which “hERG current change (%, negative = inhibition) at 10uM” value did it give?
**A.** The value was -9.62%.

**Q.** How did the “hERG current change (%, negative = inhibition) at 10uM” value turn out when `CCOc1ccccc1NC(=O)N1CCN(S(C)(=O)=O)CC1` was run?
**A.** The value was 17.5%.

**Q.** How did the “hERG current change (%, negative = inhibition) at 10uM” value turn out when `O=C(NC1CCCCC1)N(Cc1nc2ccccc2c(=O)[nH]1)C1CCCC1` was run?
**A.** Its value is -7.4%.

**Q.** How did the “hERG current change (%, negative = inhibition) at 10uM” value turn out when `COc1cccc(CNC(=O)CSc2ccc(-c3cccs3)nn2)c1` was run?
**A.** Its value is 1.8%.

**Q.** For `O=C(Cc1ccc(Cl)cc1)N/N=C/c1ccncc1`, which “hERG current change (%, negative = inhibition) at 10uM” value is on record?
**A.** The value was -27.3%.

**Q.** For `CCSc1ncc(Cl)c(C(=O)Nc2ccccc2C)n1`, which “hERG current change (%, negative = inhibition) at 10uM” value is on record?
**A.** Its value is 12.6%.

**Q.** For `Cc1cn(CCC(=O)Nc2ccc(N3CCOCC3)cc2)c2ccccc12`, which “hERG current change (%, negative = inhibition) at 10uM” value is on record?
**A.** Its value is -29.6%.

**Q.** How did the “hERG current change (%, negative = inhibition) at 10uM” value turn out when `NC(=O)c1ccc(NC(=O)COC(=O)c2n[nH]c3ccccc23)cc1` was run?
**A.** The value was 0.681%.

**Q.** With `CCN(C(=O)COC(=O)/C(C#N)=C/c1ccc(OC)cc1)C1CCS(=O)(=O)C1` (stereo not shown) as the compound, how does the “hERG current change (%, negative = inhibition) at 10uM” value read?
**A.** Its value is 1.49%.

**Q.** How did the “hERG current change (%, negative = inhibition) at 10uM” value turn out when `COc1ccc(/C=C2/C(=O)N(c3c(F)c(F)c(F)c(F)c3F)N=C2C)cc1` was run?
**A.** The value was 6.49%.

**Q.** How did the “hERG current change (%, negative = inhibition) at 10uM” value turn out when `CCN1CCN(C2CCCCC2NS(=O)(=O)c2ccc(Cl)cc2)CC1` (stereo not shown) was run?
**A.** Its value is -61.8%.

**Q.** For `COc1ccc(/C=N/Nc2nc(C)cc(-c3ccccc3)n2)cc1OC`, which “hERG current change (%, negative = inhibition) at 10uM” value is on record?
**A.** The value was -16.6%.

**Q.** With `CCN1CCN(c2oc(COc3ccc(Cl)cc3)nc2C#N)CC1` as the compound, how does the “hERG current change (%, negative = inhibition) at 10uM” value read?
**A.** The value was -77%.

**Q.** How did the “hERG current change (%, negative = inhibition) at 10uM” value turn out when `O=S(=O)(Cc1ccc(Cl)cc1)C1CCCCC1O` (stereo not shown) was run?
**A.** Its value is 4.77%.

**Q.** For `COc1cc2cc(CN(Cc3nnnn3Cc3ccco3)C3CCCCC3)c(=O)[nH]c2cc1OC`, which “hERG current change (%, negative = inhibition) at 10uM” value is on record?
**A.** The value was -19.9%.

**Q.** Which “hERG current change (%, negative = inhibition) at 10uM” value does the source give for `CCn1c2ccccc2c2cc(NC(=O)CSc3nnc(-c4ccc(OC)c(OC)c4)n3N)ccc21` here?
**A.** Its value is 0.254%.

**Q.** `COc1ccc(CN2[C@@H](CC(=O)O)c3cc(F)ccc3S2(=O)=O)cc1` was tested. Which “hERG current change (%, negative = inhibition) at 10uM” value did it give?
**A.** The value was 14.4%.

**Q.** How did the “hERG current change (%, negative = inhibition) at 10uM” value turn out when `O=c1nc(N/N=C/c2ccccn2)cn[nH]1` was run?
**A.** Its value is 7.23%.

**Q.** Which “hERG current change (%, negative = inhibition) at 10uM” value does the source give for `CCOc1ccc(Br)cc1S(=O)(=O)Nc1ccc(C(=O)OCC(=O)N(C)c2ccccc2)cc1` here?
**A.** The value was 12.7%.

**Q.** Which “hERG current change (%, negative = inhibition) at 10uM” value does the source give for `Cc1ccc(C)c(N(CC(=O)NCc2ccc3c(c2)OCO3)C(=O)CCC(=O)Nc2ccccn2)c1` here?
**A.** The value was -19%.

**Q.** For `COc1cccc(-c2c(-c3cc(OC)cc(OC)c3)n(C)c3ccc(-c4cccc5[nH]ccc45)cc23)c1`, which “hERG current change (%, negative = inhibition) at 10uM” value is on record?
**A.** The value was 12.2%.

**Q.** Which “hERG current change (%, negative = inhibition) at 10uM” value does the source give for `Cc1ccc2nc(Nc3ccc(C)c(Cl)c3)c3nncn3c2c1` here?
**A.** Its value is 21%.

**Q.** Which “hERG current change (%, negative = inhibition) at 10uM” value does the source give for `CC(=O)c1c(C)[nH]c(C(=O)Nc2cccc(S(=O)(=O)N(C)c3ccccc3)c2)c1C` here?
**A.** Its value is -11.3%.

**Q.** How did the “hERG current change (%, negative = inhibition) at 10uM” value turn out when `Cn1c(CN2CCCC2)nc2cc(NS(=O)(=O)c3ccccc3)ccc21` was run?
**A.** Its value is 1.49%.

**Q.** How did the “hERG current change (%, negative = inhibition) at 10uM” value turn out when `O=c1c(Cl)nc2cc(Cl)ccc2n1CCNc1ncc(C(F)(F)F)cc1Cl` was run?
**A.** The value was 20.4%.

**Q.** For `CC(C)(C)OC(=O)N1C[C@H](O)C[C@H]1C(=O)OCC(=O)c1ccc([N+](=O)[O-])cc1`, which “hERG current change (%, negative = inhibition) at 10uM” value is on record?
**A.** The value was -63.4%.

**Q.** With `Brc1ccccc1OCCCCCN1CCCC1` as the compound, how does the “hERG current change (%, negative = inhibition) at 10uM” value read?
**A.** Its value is -33.9%.

**Q.** Which “hERG current change (%, negative = inhibition) at 10uM” value does the source give for `Cc1ccc(C(=O)OCN2C(=O)c3ccccc3C2=O)c(O)c1` here?
**A.** The value was 22.6%.

**Q.** With `Nc1ccc2oc(=O)c3ccccc3c2c1` as the compound, how does the “hERG current change (%, negative = inhibition) at 10uM” value read?
**A.** Its value is -4.73%.

**Q.** How did the “hERG current change (%, negative = inhibition) at 10uM” value turn out when `Cn1c(=O)oc2cc(S(=O)(=O)NCc3ccc(C(=O)O)cc3)ccc21` was run?
**A.** Its value is 54.7%.

**Q.** With `COC(=O)C1=C(c2cccc(OC)c2OC)C[C@@H]2CC[C@H]1N2C(=O)N1CCOCC1` as the compound, how does the “hERG current change (%, negative = inhibition) at 10uM” value read?
**A.** The value was -1.1%.

**Q.** For `CCc1ccc(NS(=O)(=O)c2ccc3[nH]cc(C(=O)N4CCCCC4)c(=O)c3c2)cc1`, which “hERG current change (%, negative = inhibition) at 10uM” value is on record?
**A.** The value was 0.775%.

**Q.** How did the “hERG current change (%, negative = inhibition) at 10uM” value turn out when `O=c1[nH]c(N/N=C/c2ccc(O)cc2)nc2ccccc12` was run?
**A.** Its value is -3.67%.

**Q.** With `Cc1nn(C(=O)c2ccco2)c(C)c1Sc1ccccc1` as the compound, how does the “hERG current change (%, negative = inhibition) at 10uM” value read?
**A.** The value was 15.7%.

**Q.** For `O=C(CSc1nnc(-c2ccc(C(F)(F)F)cn2)o1)Nc1ccccc1Cl`, which “hERG current change (%, negative = inhibition) at 10uM” value is on record?
**A.** Its value is 23.8%.

**Q.** For `CC(C)Cn1c(=O)c2sccc2n2c(CCCC(=O)N3CCC(N4CCCCC4)CC3)nnc12`, which “hERG current change (%, negative = inhibition) at 10uM” value is on record?
**A.** The value was 4.55%.
